Experimental data from PubChem BioAssay AID1460 (National Center for Advancing Translational Sciences (NCATS), 2008).
The campaign covered roughly 270,000 compounds. About 5,800 (2.1%) were called active. The inconclusive results got no clear call from the source; some entries with a clear call stand among them for comparison. Calls come from the whole dose curve; as a rule, active = well fitted inhibition curve with a large enough effect; inconclusive = small, poorly fitted or top-dose-only effect; inactive = flat fitted curve, though single readings scatter. Potencies of inconclusive entries are doubtful fits and often do not repeat.

What follows are compounds tested against Microtubule-associated protein tau (Homo sapiens) (UniProt P10636) (assay: qHTS for Inhibitors of Tau Fibril Formation, Thioflavin T Binding). Conditions: recombinant tau K18 P301L (four-repeat tau fragment), heparin-induced fibrillization, ThT fluorescence; series mostly up to 57.4 µM.
Summary of the method: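 Aggregation was driven by heparin (20 uM final) acting on recombinant tau […] bearing P301L in 100 mM sodium acetate pH 7; fibrils were detected with Thioflavin T.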
Note: nearly all actives have a fitted effect of over 55% in size.
Potency is the fitted concentration of half-maximal effect; tags give direction and shape of the fitted curve.

Chain of UniProt P10636 (P10636 whole entry, looked up, the tested form may be a part): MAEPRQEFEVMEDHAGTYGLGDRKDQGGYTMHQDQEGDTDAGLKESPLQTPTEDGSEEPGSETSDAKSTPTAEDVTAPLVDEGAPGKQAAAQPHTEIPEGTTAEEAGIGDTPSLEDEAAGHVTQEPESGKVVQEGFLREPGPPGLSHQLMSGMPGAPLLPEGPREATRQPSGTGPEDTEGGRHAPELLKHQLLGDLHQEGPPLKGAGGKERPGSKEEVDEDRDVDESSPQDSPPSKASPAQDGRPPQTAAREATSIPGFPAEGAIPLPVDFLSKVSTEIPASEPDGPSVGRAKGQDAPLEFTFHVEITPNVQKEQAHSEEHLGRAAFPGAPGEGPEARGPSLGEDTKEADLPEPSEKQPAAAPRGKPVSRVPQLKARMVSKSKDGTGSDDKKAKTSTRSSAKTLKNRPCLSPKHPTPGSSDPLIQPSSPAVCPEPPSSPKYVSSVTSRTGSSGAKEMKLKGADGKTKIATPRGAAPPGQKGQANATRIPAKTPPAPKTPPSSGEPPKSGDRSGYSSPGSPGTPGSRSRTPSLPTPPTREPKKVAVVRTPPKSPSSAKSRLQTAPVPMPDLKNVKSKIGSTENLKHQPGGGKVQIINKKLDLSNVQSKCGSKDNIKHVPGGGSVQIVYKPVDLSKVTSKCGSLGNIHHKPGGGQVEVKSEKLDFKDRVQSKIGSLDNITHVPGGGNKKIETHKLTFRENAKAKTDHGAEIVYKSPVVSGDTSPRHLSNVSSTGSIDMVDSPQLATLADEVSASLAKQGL

Structure (SMILES) | Potency
Cc1cccc(NC(=O)Cn2c(O)c(N=NC(=O)c3ccncc3)c3ccccc32)c1 | inconclusive: 10 µM [inhibitor, partial curve]
Cc1ccc(-c2csc3ncnc(SCc4ccc(C(=O)O)cc4)c23)cc1 | inconclusive: 20 µM [inhibitor, single point]
O=C(N/N=C/c1cn(-c2ccccc2)nc1-c1ccc(F)cc1)c1ccc(Br)o1 | inconclusive: 17.8 µM [inhibitor, partial curve]
COC(=O)c1ccc(C(c2c(N)n(Cc3ccccc3)c(=O)n(C)c2=O)N2CCOCC2)cc1 (stereo not given) | inconclusive: 39.8 µM [inhibitor, single point]
Cc1ccc2nc(N3CCC(C(=O)N4CCN(c5cccc(C)c5C)CC4)CC3)[nH]c2c1 | inconclusive: 15.8 µM [inhibitor, partial curve]
COc1cc([N+](=O)[O-])cc(CN2CCCCC2)c1O | inactive
O=C1CCCN1CCCN1C(=O)N[C@@H](Cc2ccccc2)C1=O | inactive
Cc1ccc(S(=O)(=O)c2cc3c(=O)n4cccc(C)c4nc3n(Cc3ccco3)c2=N)cc1C | inconclusive: 17.8 µM [inhibitor, partial curve]
CCCOC(=O)Nc1ccc(N2CCCCC2)cc1 | inactive
COc1ccc(CCNC(=O)c2c([S-])n(-c3ccc(C)cc3)c3cccc[n+]23)cc1 | inconclusive: 0.282 µM [inhibitor, full curve, poor fit]
COc1cc2c(cc1NC(=O)c1ccc3c(c1)OCO3)oc1ccccc12 | inconclusive: 25.1 µM [activator, single point]
Cc1cc(NS(=O)(=O)c2ccccc2)c([N+](=O)[O-])cc1C | inconclusive: 25.1 µM [inhibitor, single point]
Cc1cccc(C)c1NC(=O)Cn1c(=O)n(CCCC(=O)NCc2ccco2)c(=O)c2sccc21 | inactive
CCOc1ccc(NC(=O)COc2ccc(OC)cc2)cc1 | inconclusive: 12.6 µM [inhibitor, partial curve]
COc1ccc(CCNC(=O)c2c(O)c3cccc4c3n(c2=O)CC4)cc1 | inconclusive: 1.78 µM [inhibitor, full curve]
O=C(Nc1ccc2c(c1)OCO2)c1ccc(N2CCCC2)c([N+](=O)[O-])c1 | active: 12.6 µM
Cc1cccc(-c2nnc(SCc3cc(=O)c4cccc(Cl)c4[nH]3)n2C)c1 | inactive
COc1cccc2c1ncc1c(-c3ccc(C)cc3)nn(-c3cccc([N+](=O)[O-])c3)c12 | inconclusive: 35.5 µM [inhibitor, single point]
O=C(NC(=S)N1CCOCC1)c1cc2ccccc2o1 | inactive
Cc1cc(N/N=C/c2ccccc2[N+](=O)[O-])nc(-n2nc(C)cc2C)n1 | inconclusive: 14.1 µM [inhibitor, partial curve]
Cc1cc(C(=O)OCC(=O)c2ccc3c(c2)OCCO3)c(C)o1 | inconclusive: 20 µM [inhibitor, partial curve]
NC(=O)c1c(NC(=S)Nc2ccccc2)sc2c1CCCC2 | inconclusive: 31.6 µM [inhibitor, single point]
O=C(Oc1ccc2c3c(c(=O)oc2c1)CCCC3)c1cccs1 | inconclusive: 22.4 µM [inhibitor, partial curve]
CCOc1ccc2oc(C(=O)Nc3ccc(N4CCOCC4)cc3)c(C)c2c1 | inconclusive: 0.708 µM [inhibitor, full curve]

Structure (SMILES) | Potency
COc1ccc(/C=N/NC(=O)c2cc(Br)ccc2O)cc1Cn1cc(Cl)cn1 | inconclusive: 15.8 µM [inhibitor, partial curve]
COC(=O)c1ccc2c(=O)n(CCCN3CCOCC3)c(=S)[nH]c2c1 | inactive
CCC(=O)/C=C1/Sc2ccccc2N1CC | inconclusive: 17.8 µM [inhibitor, partial curve]
CN1CCN(C(c2cccc(Cl)c2)c2ccccc2Cl)CC1 (stereo not given) | inconclusive: 44.7 µM [inhibitor, single point]
CN1CCc2c(sc3c2c(=O)n(-c2ccccc2)c2nncn32)C1 | inconclusive: 25.1 µM [inhibitor, single point]
COc1cccc(-n2c(COc3ccc(C)cc3)nnc2SCC(=O)O)c1 | inactive
O=C(NCCN1CCCCC1)c1cc(OCC(F)(F)F)ccc1OCC(F)(F)F | inactive
CC1(c2ccc3noc(-c4ccc(Cl)cc4)c3c2)OCCO1 | inconclusive: 3.55 µM [inhibitor, single point]
OC1CCN(C(=S)Nc2ccc(Nc3ccccc3)cc2)CC1 | inconclusive: 15.8 µM [inhibitor, single point]
Cc1ccccc1NC(=S)Nc1ccc2cn[nH]c2c1 | inconclusive: 12.6 µM [inhibitor, partial curve]
CCN1/C(=C/C=C/C=C/c2sc3ccccc3[n+]2CC)Sc2ccccc21 | active: 3.98 µM
C/C(=C\C=C(C#N)C#N)c1cc(C#N)c(N)o1 | active: 12.6 µM
O=C(Oc1cc2oc(=O)cc(-c3ccccc3)c2cc1Cl)C1CCCCC1 | inactive
CCCCOC(=O)c1ccc(NC(=S)NC(=O)c2c(Br)c(C)nn2C)cc1 | inconclusive: 22.4 µM [inhibitor, single point]
COc1ccc(NC2=Nc3cccc4cccc2c34)cc1OC | active: 12.6 µM
O=C(COC(=O)Cc1ccc(S(=O)(=O)N2CCCCC2)s1)Nc1ccc2c(c1)OCO2 | inconclusive: 15.8 µM [inhibitor, partial curve]
COc1ccc(C(=O)NCCn2cc(SCC(=O)N3CCOCC3)c3ccccc32)cc1 | inconclusive: 25.1 µM [inhibitor, single point]
CCOC(=O)N1CCN(C(=O)CCCn2nc(C)c3sc4ccccc4c3c2=O)CC1 | inconclusive: 2.24 µM [inhibitor, full curve]
COc1cc(/C=C(/C#N)c2nc3ccccc3c(=O)[nH]2)ccc1O | inconclusive: 7.08 µM [inhibitor, partial curve]
C/C=C(/C)C(=O)OC1c2c(ccc3ccc(=O)oc23)OC(C)(C)C1OC(=O)/C(C)=C\C (stereo not given) | inconclusive: 0.501 µM [inhibitor, partial curve]
CC(=O)c1cccc(OCC(=O)N(C)CC(=O)Nc2ccc(F)cc2)c1 | inactive
Cn1ccnc1SCCNC(=O)CCc1nnc(CCCCc2ccccc2)o1 | inconclusive: 22.4 µM [inhibitor, single point]
O=C1CC(c2ccco2)CC(O)=C1C=NCC1NCCc2ccccc21 (stereo not given) | inconclusive: 25.1 µM [inhibitor, single point]
Cc1nn2c(=S)[nH]nc2[nH]c1=O | inactive

Structure (SMILES) | Potency
O=C(N/N=C/c1c(O)ccc2ccccc12)c1[nH]ncc1Br | inconclusive: 2.51 µM [inhibitor, single point]
COc1ccc(/C=C2/SC(=S)N(CCC(=O)O)C2=O)cc1 | inconclusive: 14.1 µM [inhibitor, partial curve]
CCOC(=O)CSc1nnc(CSc2nc3ccccc3s2)n1C | inactive
S=C(Nc1ccc(Cl)cc1)c1nc2ccccc2s1 | inconclusive: 4.47 µM [inhibitor, full curve]
COc1cc(/C=C2/NC(=O)N(Cc3ccccc3F)C2=O)cc(OC)c1O | inconclusive: 12.6 µM [inhibitor, partial curve]
O=C(CSc1nc2ccccc2o1)Nc1nc(-c2ccccc2)cs1 | inconclusive: 0.447 µM [inhibitor, full curve, poor fit]
Cc1nn(-c2ccccc2)c2c1C(c1ccc(F)cc1)C(C#N)=C(N)O2 (stereo not given) | inconclusive: 8.91 µM [inhibitor, partial curve, poor fit]
Cc1cc([N+](=O)[O-])c(C)cc1-c1ccc(/C=N/NC(=O)Cn2nnnc2N)o1 | inconclusive: 20 µM [inhibitor, single point]
COCCCNC(=O)c1ccccc1SC | inactive
Cc1ccc(C)n1CCN1CCN(C(=O)CSc2nc3ccccc3nc2N2CCOCC2)CC1 | inconclusive: 14.1 µM [inhibitor, partial curve]
COc1ccccc1NC(=O)N(Cc1nnc2n1CCCCC2)c1ccc(F)cc1 | inactive
Nc1nc(Nc2ccccc2)nc2c1ncn2[C@@H]1O[C@@H](CO)[C@H](O)[C@H]1O | inactive
CC(=O)Nc1ccc(-c2csc(NC(=O)CCCc3cccs3)n2)cc1 | inconclusive: 1 µM [inhibitor, full curve]
COc1cccc(-c2nc(-c3ccc4c(c3)-c3ccccc3S4(=O)=O)c(-c3ccccc3)[nH]2)c1OC | inactive
Cc1cccc(C)c1OCC(=O)Nc1ncn[nH]1 | inconclusive: 7.08 µM [inhibitor, single point]
COC(=O)c1c(NC(=O)c2cc3ccccc3c(=O)o2)sc2c1CCCC2 | inactive
COc1ccc(OCc2nnc(SC3CCOC3=O)n2-c2ccccc2)cc1 (stereo not given) | inactive
Oc1c(N=NC(=S)Nc2ccccc2F)c2ccccc2n1Cc1cccc(Cl)c1 | inconclusive: 3.55 µM [inhibitor, full curve]
COc1ccc(-c2coc3cc(O)ccc3c2=O)cc1O | inconclusive: 28.2 µM [inhibitor, single point]
CCN(CC)CCCN=Cc1c(-c2ccccc2)[nH]n(-c2nc3ccccc3s2)c1=O | inconclusive: 44.7 µM [inhibitor, single point]
COc1ccc(-c2nnc(SCC(=O)Nc3cccc(C(F)(F)F)c3)nc2-c2ccc(OC)cc2)cc1 | inconclusive: 10 µM [inhibitor, partial curve]
Oc1[nH]c2ccccc2c1/C=N/c1nccs1 | inconclusive: 17.8 µM [inhibitor, partial curve]
